Assay results reported in PubChem BioAssay AID493208 (National Center for Advancing Translational Sciences (NCATS), 2011).
Hit rate of the full screen: of about 44,000 compounds, about 340 (0.77%) were called active. Inconclusive results (about 5%) are left out. Calls come from the whole dose curve; as a rule, active = well fitted inhibition curve with a large enough effect; inconclusive = small, poorly fitted or top-dose-only effect; inactive = flat fitted curve, though single readings scatter. The list shows a part of the results.

Test: Acumen qHTS Assay for Inhibitors of the mTORC1 Signaling Pathway in MEF (Tsc2-/-, p53-/-) Cells: Sytravon; note: nearly all actives have a fitted effect of over 50% in size;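 for activity change, negative = inhibition: plate controls were DMSO for no effect and rapamycin for full effect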
Details: phospho-rpS6 immunofluorescence/PI, 24 h; series mostly up to 38.3 µM; activity change, negative = inhibition: at the top concentration
Procedure, shortened: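 Immunofluorescence of rpS6 phosphorylation in Tsc2-/-, p53-/- MEFs after 24 h compound exposure, normalized to propidium iodide signal. Activity is expressed as % positive cells, thresholded with 7.5 nM rapamycin.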
Potency is the fitted concentration of half-maximal effect.

SMILES | activity change, negative = inhibition | Potency
COc1ccc(N2CCN(C(=O)CCc3c(C)nn(-c4ccc(N5CCCC5)nn4)c3C)CC2)cc1 | inactive: -16% | 
Cc1ccc(NC(=O)Nc2nnc(N(CC(C)C)CC(C)C)s2)cc1Cl | inactive: 0.79% | 
COc1cccc(N2CCN(C(=O)C(CCSC)NS(=O)(=O)c3ccc4c(c3)oc(=O)n4C)CC2)c1 (stereo not given) | inactive: -0.482% | 
CCc1ccc(CNC(=O)Cc2ccc(NC(=O)N3CCSc4ncccc43)cc2)cc1 | inactive: -1.31% | 
CCOC(=O)CSc1nc2ccc(NC(=O)c3ccc(C)cc3)cc2s1 | inactive: -3.74% | 
O=C(O)c1ccc2c(c1)ncn2-c1ccc(F)c(F)c1 | inactive: -8.75% | 
COc1ccc(NC(=O)C2=C(C)Nc3ncnn3C2c2ccc(O)cc2)cc1 (stereo not given) | inactive: -13.5% | 
COc1ccc(OC)c(NC(=O)c2cc3c(=O)oc4ccccc4c3s2)c1 | inactive: 2.67% | 
Cc1cc2c(cc1S(=O)(=O)NCc1ccccc1Cl)OCCN2C | inactive: 0% | 
CCN(CC)c1nn2c(=O)c(C(=O)NCCc3ccccc3)cnc2s1 | inactive: 0.781% | 
Cc1ccc(C)c(NC(=O)c2ccc3c(O)c(S(=O)(=O)c4ccc(Cl)cc4)c(=O)[nH]c3c2)c1 | inactive: 4.32% | 
CCCCSCCCNC(=O)CN1C(=O)c2cccnc2Oc2ccc(Cl)cc21 | inactive: 0.515% | 
Fc1ccc(-c2noc3ncnc(N4CCN(c5ccccc5)CC4)c23)cc1 | inactive: 5.94% | 
COc1ccc(S(=O)(=O)N2CCN(c3ccccc3F)CC2)cc1-c1noc(C)n1 | inactive: 0.953% | 
O=C(NCc1ccc(F)cc1)c1ccc2c(Cl)c3c(nc2c1)CCCC3 | inactive: -6.39% | 
CCOC(=O)c1ccccc1NC(=O)C(=O)Nc1ccc2nc3n(c(=O)c2c1)CCCCC3 | inactive: -11% | 
CC(=O)N1CCOc2cc(S(=O)(=O)Nc3cccc(C(F)(F)F)c3)c(Cl)cc21 | inactive: 0% | 
Cc1cn2c(=O)cc(COc3cccc(NC(=O)c4ccccc4C)c3)nc2s1 | inactive: -1.41% | 
COc1ccc(NC(=O)C2CCN(S(=O)(=O)c3ccc4[nH]c(=O)ccc4c3)CC2)c(OC)c1 | inactive: 0.138% | 
CCOC(=O)c1[nH]c(C)c(CCC(=O)NCc2ccccc2)c1C | inactive: 7.73% | 
COc1ccc(OC)c(NC(=O)Cc2coc3ccc(C(C)C)cc23)c1 | inactive: -7.18% | 
CCOC(=O)c1c(-c2ccccc2)oc2ccc(N(C(C)=O)S(=O)(=O)c3cc(C)ccc3C)cc12 | inactive: -3.26% | 
CCOc1ccc(CNC(=O)C2CCN(c3nnc(-n4cccc4CNc4ccc(C)cc4)s3)CC2)cc1OC | inactive: -0.246% | 
CCc1c(C)nc(SCC(=O)N2CCN(c3ccccc3OC)CC2)[nH]c1=O | inactive: -1.55% | 

SMILES | activity change, negative = inhibition | Potency
Cc1ccc(O)c(C(CC(=O)NCC2(c3ccccc3)CCCC2)c2ccccc2)c1 (stereo not given) |  | active: 18.5 µM
CCOC(=O)c1ccccc1NC(=O)Cn1cc(C(=O)c2cccc(OC)c2)c(=O)c2ccc(C)nc21 | inactive: 1.72% | 
CCOC(=O)c1c(C)[nH]c(CCC(=O)NCCCN2CCN(c3ccc(F)cc3)CC2)c1C | inactive: 10.1% | 
Cc1cccc(-c2nc(S(=O)(=O)c3ccc(F)cc3)c(N3CCN(c4ccccc4)CC3)o2)c1 | inactive: -0.0713% | 
CC(C)c1ccc(NC(=O)c2cc3c(s2)-c2ccccc2SC3)cc1 | inactive: -1.13% | 
Cc1ccc(CCNC(=O)c2ccc3c(c2)N(Cc2cccc(C)c2)C(=O)c2ccccc2S3(=O)=O)cc1 | inactive: -9.43% | 
Cc1cc(=O)[nH]c2nnc(SCC(=O)NC(C)(C)C)n12 | inactive: 2.86% | 
O=C(CN1C(=O)COc2ccc(S(=O)(=O)N3CCCCCC3)cc21)NCc1ccc(Cl)cc1 | inactive: -9.55% | 
COc1cc2c(cc1OC)C(COc1ccccc1OC)N(C(=O)CC(C)C)CC2 (stereo not given) | inactive: 9.29% | 
COc1ccc(Cl)cc1Nc1sc(C(=O)c2ccccc2)c(N)c1C(=O)Nc1ccccc1 | inactive: 1.01% | 
CC(=O)N1CCc2cc(CNS(=O)(=O)c3ccc(F)cc3)ccc21 | inactive: 0% | 
CCc1ccc(-c2cn3c(n2)sc2cc(C(=O)NC4CCCCCC4)ccc23)cc1 | inactive: 5.45% | 
O=C(NCc1cccc(Cl)c1)c1cc2c(s1)-c1ccccc1OC2 | inactive: -2.75% | 
CCc1c(C)sc2c1CCN(Cc1cccc(F)c1)C2c1ccccc1 (stereo not given) | inactive: 7.34% | 
COCCc1nn2c(=O)cc(COC(=O)c3ccc4c(c3)OCO4)nc2s1 | inactive: -3.2% | 
CC(=O)Nc1ccc(C(=O)CSc2nnc(-c3ccccc3)n2-c2ccccc2)cc1 | inactive: 15.3% | 
Cc1ccc(NC2=C(c3ccc(C(F)(F)F)cc3)C(=O)c3ccccc32)cc1C | inactive: 1.74% | 
Cc1ccc(-c2cc(C(=O)NCc3cnn(C)c3C)c3cc(Br)ccc3n2)cc1 | inactive: -0.741% | 
Cc1ccc(S(=O)(=O)c2nc(-c3ccccc3F)oc2N2CCCCC2)cc1 | inactive: -4.25% | 
O=C(NC1CC1)c1ccc(Cn2c(SCc3cccc(F)c3)nc3cccnc32)cc1 | inactive: -4.42% | 
O=C(Nc1ccc(Cl)cc1)C1CCN(c2nc3ccccc3nc2C(F)(F)F)CC1 | inactive: 5.72% | 
O=C(NCC(c1cccnc1)N1CCc2ccccc2C1)c1ccc(F)c(F)c1 (stereo not given) | inactive: 3.57% | 
COc1ccccc1N1CCN(C(=O)c2ccc(CS(=O)c3ccccc3C)o2)CC1 (stereo not given) | inactive: -16.8% | 
COc1ccc(CCN2C(=O)c3oc4cc(C)cc(C)c4c(=O)c3C2c2ccc(F)cc2)cc1OC (stereo not given) | inactive: 2.47% | 

SMILES | activity change, negative = inhibition | Potency
CCS(=O)(=O)N1CCc2cc(C(=O)NCc3ccc(OC)cc3)ccc21 | inactive: -0.0427% | 
Cn1cc(S(=O)(=O)c2cccc(Cl)c2)c(=O)c2cc(F)c(N3CCCCCC3)cc21 | inactive: -4.97% | 
CCC(CC)C(=O)Nc1ccc(OCc2cc(=O)n3c4c(sc3n2)CCCC4)cc1 | inactive: -5.52% | 
CCOc1ccc(NC(=O)c2ccc3c(SCC(=O)O)c4c(nc3c2)CCCC4)cc1 | inactive: -1.13% | 
Cc1ccc(C(=O)N2CCc3cc(CNS(=O)(=O)c4ccc(Cl)s4)ccc32)cc1 | inactive: -27.6% | 
Cn1cc(S(=O)(=O)c2ccc(Cl)cc2)c(=O)c2cc(F)c(N3CCCCCC3)cc21 | inactive: 0% | 
O=C(CN1CCN(S(=O)(=O)c2cc(Cl)ccc2Cl)CC1)Nc1cccc(F)c1 | inactive: -4.08% | 
CCOc1ccc(C2CC(=O)n3nc(-c4ccc(C)cc4)nc3S2)cc1OC (stereo not given) | inactive: -10.6% | 
Fc1ccc(-c2nc(Nc3ccc(F)c(Cl)c3)nc3c2COc2ccccc2-3)cc1 | inactive: 2.52% | 
CC(C(=O)Nc1cccc(C#N)c1)n1nc(-c2ccccc2)c2c(c1=O)CCCC2 (stereo not given) | inactive: -6.4% | 
CCOC(=O)C1CCCN(C(=O)c2ccc3c(c2)N(Cc2ccccc2)C(=O)c2ccccc2S3(=O)=O)C1 (stereo not given) | inactive: -5.48% | 
CC1=C(C(=O)Nc2ccc(C)cc2C)C(c2ccccc2[N+](=O)[O-])n2ncc(C(=O)Nc3ccccc3)c2N1 (stereo not given) | inactive: 1.67% | 
O=C(Nc1ccc2nc3n(c(=O)c2c1)CCCCC3)c1cccc(C(F)(F)F)c1 | inactive: -5.06% | 
O=C(CCC1N=C2c3ccccc3N=C(SCC(=O)Nc3ccc(F)cc3)N2C1=O)NCc1ccco1 (stereo not given) | inactive: -18% | 
Cc1ccc(N(Cc2cccs2)C(=O)c2ccco2)cc1 | inactive: 1.82% | 
Nc1nn(-c2ccccc2)nc1C(=O)OCc1c(F)cccc1Cl | inactive: 9.01% | 
CC(C)N(C(=O)Cn1cc(S(=O)(=O)Cc2ccc(Cl)cc2)c2ccccc21)C(C)C | inactive: -22.1% | 
COc1ccc(-n2c(SCC(=O)NCc3ccccc3)nc3c([nH]c4ccccc43)c2=O)cc1 | inactive: -12.6% | 
COc1ccc(NC(=O)CC2Nc3ccccc3NC2=O)cc1 (stereo not given) | inactive: 3.82% | 
COc1ccc(Nc2nn(-c3ccc(OC(F)(F)F)cc3)nc2C(C)=O)cc1 | inactive: 0.291% | 
Cc1cc(C(=O)NCc2ccccc2)c2c(C)nn(-c3cccc(F)c3)c2n1 | inactive: 2.8% | 
COc1ccc(OC)c(NC(=O)c2ccc3c(Cl)c4c(nc3c2)CCCC4)c1 | inactive: -3.15% | 
COc1cc(OC)c(NC(=O)N2CCC(CN3CCCC3)CC2)cc1Cl | inactive: -5.93% | 
CCOC(=O)c1ccc(Nc2nn3c(=O)c4ccccc4nc3s2)cc1 | inactive: -1.47% | 

SMILES | activity change, negative = inhibition | Potency
CCCCN(C)C(=O)Cn1cnc2sc(C)c(S(=O)(=O)N3CCC(C)CC3)c2c1=O | inactive: 0.558% | 
Cc1nn(-c2ccccc2)c2c1N(CC(=O)N1CCN(c3ccccc3F)CC1)C(=O)CS2 | inactive: -1.54% | 
Cc1ccc(CNC(=O)c2ccc(CS(=O)(=O)Cc3ccc(C)cc3)o2)cc1 | inactive: 3.32% | 
Cc1ccc(CNc2ccc3cc(S(=O)(=O)N4CCCCC4)ccc3n2)cc1 | inactive: -5.76% | 
CCN(CC)c1ccc(C2Nc3ccccc3-c3cc(C)nn32)cc1 (stereo not given) | inactive: 0.607% | 
CCCCN(CCCNC(=O)c1cc(Nc2ccccc2OC)nc2ccccc12)c1ccccc1 | inactive: -14.4% | 
COc1ccc(C2(CNC(=O)C(=O)Nc3ccccc3C)CCCC2)cc1OC | inactive: -11% | 
Cc1ccc(OCCCn2c(-c3ccc(Cl)cc3)nc3ccccc3c2=O)c(C)c1 | inactive: 1.57% | 
Cc1ccc(NC(=O)C2CCCN(S(=O)(=O)c3c(C)noc3C)C2)cc1 (stereo not given) | inactive: -3.24% | 
Clc1ccc(-n2c(Cc3ccccc3)nnc2SCc2nc(-c3cccs3)no2)cc1 | inactive: -1.19% | 
Cc1cccc(-n2c(=O)c3c4c(sc3n3c(C)nnc23)CCCC4)c1 | inactive: -1.16% | 
COc1ccc(NC(=O)c2oc3ccccc3c2NC(=O)C2CCCCC2)c(OC)c1 | inactive: -0.402% | 
Nc1c(C(=O)Nc2ccccc2)sc2nc3c(cc12)CN(Cc1ccccc1)CC3 | inactive: -12% | 
CCOc1cc(C#N)c(-n2nnc3c(sc4nc(C)cc(C)c43)c2=O)cc1OCC | inactive: 7.07% | 
CCCCN(C)C(=O)c1ccc2c(c1)N(Cc1cccc(F)c1)C(=O)c1ccccc1S2 | inactive: -8.39% | 
CCOC(=O)c1scc(-c2ccc(C)cc2)c1S(=O)(=O)Nc1cc(OC)ccc1OC | inactive: -2.22% | 
Cc1cc(C)c(/C=C/c2onc(C)c2S(=O)(=O)N2CCC(C(=O)NCCc3ccccc3)CC2)c(C)c1 | inactive: -0.732% | 
COC(=O)c1ccc(NC(=O)Cn2cnc3c2c(=O)n(C)c(=O)n3C)cc1 | inactive: -3.37% | 
Cc1cccc(N(CC(=O)NCCSCc2ccccc2)S(=O)(=O)c2ccccc2)c1C | inactive: -13.8% | 
CCc1cccc(C)c1NC(=O)C1CCCN1S(=O)(=O)c1cccc2nsnc12 (stereo not given) | inactive: 1.76% | 
Cc1ccc(C(=O)c2cn(Cc3ccccc3)c3nc(C)ccc3c2=O)cc1 | inactive: -2.5% | 
Cc1nc(N2CCCC2)c2c(C(=O)N3CCN(c4cc(Cl)ccc4C)CC3)c(C)oc2n1 | inactive: -4.57% | 
CCn1c(=O)c(=O)n(CC)c2cc(S(=O)(=O)Nc3ccc(C)cc3)ccc21 | inactive: -0.261% | 
